From the supplement of paper PMC12217912
This is one part of the list. The full chains were built here from the parent and the listed change. Inactive controls read about 0.05.

B1: TEV protease; numbered along this chain (parent)
chain: MGESLFKGPRDYNPISSSICHLTNESDGHTTSLYGIGFGPFIITNKHLFRRNNGTLVVQSLHGVFKVKDTTTLQQHLVDGRDMIIIRMPKDFPPFPQKLKFREPQREERICLVTTNFQTKSMSSMVSDTSCTFPSGDGIFWKHWIQTKDGQCGSPLVSTRDGFIVGIHSASNFTNTNNYFTSVPKNFMELLTNQEAQQWVSGWRLNADSVLWGGHKVFMVKPEEPFQPVKEATQL

Variants of: B1
Test: raw area under fraction-flipped curve 0-4 h after induction (AUC4h, not background-subtracted), DNA-recorder readout of cleavage of the substrate (dimensionless); higher = more cleavage of the substrate by the protease variant
Settings: temperature: 34 °C; time window: 0-4 h after rhamnose induction
Protocol: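 In vivo DNA recorder in E. coli TOP10(DE3) ΔrhaA at 34 °C. Each TEVp single-site mutant (parent TEVp 0) is paired with a single-site variant of the 7-mer TEVs (canonical ENLYFQ|S). The substrate sits between flexible linkers in a Bxb1-sfGFP-TEVs-SsrA fusion, so cleavage stabilises Bxb1 and speeds flipping of a recombination array, read by NGS. The value is the raw area under the fraction-flipped curve over 0-4 h after rhamnose induction (AUC4h), with ≥20 reads per time point. It is not background-subtracted; inactive controls average about 0.047.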
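Also: Bxb1 expression induced with 0.2% (w/v) L-rhamnose at OD600 near 0.5, cultures sampled hourly, flipped fraction per protease–substrate barcode pair counted by paired-end Illumina sequencing.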

Variant | area with substrate ANLYFQS | area with substrate CNLYFQS | area with substrate FNLYFQS | area with substrate HNLYFQS | area with substrate INLYFQS | area with substrate KNLYFQS | area with substrate LNLYFQS | area with substrate MNLYFQS | area with substrate NNLYFQS | area with substrate PNLYFQS | area with substrate QNLYFQS | area with substrate RNLYFQS | area with substrate SNLYFQS | area with substrate TNLYFQS | area with substrate WNLYFQS | area with substrate YNLYFQS | area with substrate GNLYFQS | area with substrate VNLYFQS | area with substrate DNLYFQS
F218L | 0.0675 | 0.058 | 0.055 | 0.0717 | 0.0385 | 0.0576 | 0.0522 | 0.0575 | 0.05 | 0.0618 | 0.0665 | 0.0537 | 0.0545 | 0.0568 | 0.0598 | 0.0679 |  |  | 
Q118S | 0.0539 | 0.061 |  |  | 0.0482 |  |  |  | 0.0624 | 0.0678 |  |  |  | 0.0458 |  | 0.0597 | 0.0602 | 0.087 | 
D82W | 0.0483 | 0.0484 |  |  | 0.0441 | 0.0668 | 0.0563 | 0.0714 | 0.0554 | 0.0583 | 0.0489 |  | 0.0353 | 0.0464 | 0.058 |  | 0.0718 | 0.0572 | 
T70D | 0.0647 | 0.0581 |  | 0.0494 |  | 0.0538 |  | 0.0519 | 0.0597 | 0.0353 |  | 0.0632 | 0.0479 | 0.06 | 0.0545 | 0.0595 |  |  | 
R204W | 0.052 | 0.0654 | 0.0688 | 0.0653 | 0.0651 | 0.0676 |  |  |  | 0.07 | 0.082 |  | 0.0739 | 0.0561 | 0.0562 | 0.063 |  | 0.0694 | 
D149K | 0.0684 | 0.0578 | 0.06 | 0.0488 | 0.0609 | 0.0511 | 0.0653 |  | 0.0704 | 0.0542 | 0.0598 | 0.0301 | 0.0655 |  | 0.0675 | 0.0595 |  | 0.0759 | 
Y179L | 0.0511 | 0.057 |  | 0.0578 |  |  |  |  |  |  |  | 0.0515 |  | 0.0555 |  | 0.0537 |  |  | 
D161H | 0.0582 | 0.0643 |  | 0.0436 |  | 0.0512 | 0.0613 | 0.055 | 0.0536 | 0.0653 |  |  | 0.0755 | 0.05 |  |  | 0.0727 | 0.0786 | 
E107S | 0.0551 |  | 0.0681 | 0.0604 |  | 0.0642 |  | 0.0629 | 0.0652 | 0.0554 |  |  | 0.075 | 0.0597 | 0.059 | 0.0596 |  | 0.0706 | 0.0822
C20G | 0.0421 | 0.0385 |  |  |  |  |  |  |  |  |  |  | 0.0532 |  |  |  |  |  | 
C20S | 0.0559 | 0.064 | 0.0276 | 0.0654 |  | 0.039 | 0.0477 |  | 0.0346 | 0.049 | 0.0534 |  | 0.0469 | 0.0658 | 0.0511 |  | 0.0533 |  | 
W203E | 0.0542 | 0.063 |  | 0.0516 | 0.0569 | 0.0543 |  |  |  | 0.069 | 0.0602 | 0.0494 |  | 0.0666 | 0.0552 | 0.0743 | 0.0707 |  | 
G63D | 0.03 | 0.0547 |  | 0.0498 |  | 0.0521 | 0.0562 | 0.0592 |  | 0.0678 |  |  | 0.0622 | 0.0555 | 0.0577 | 0.0613 |  | 0.0593 | 
E25T | 0.0641 | 0.0801 |  | 0.0554 | 0.0674 | 0.0694 |  |  |  | 0.0738 |  |  |  |  | 0.0573 | 0.0556 |  |  | 
Q234R | 0.0079 | 0.0676 | 0.0382 | 0.0625 | 0.0657 | 0.0718 |  | 0.0707 |  | 0.0578 |  |  |  |  |  |  |  |  | 
G202L | 0.0628 |  |  | 0.0602 |  | 0.0678 |  |  |  | 0.0599 |  |  | 0.0521 | 0.0572 | 0.0491 |  |  |  | 0.0545
H47S | 0.0694 | 0.054 | 0.0561 | 0.105 | 0.0641 | 0.0602 | 0.041 | 0.0466 | 0.0382 | 0.0481 |  |  | 0.0479 | 0.0538 | 0.0543 | 0.0572 | 0.0515 | 0.0326 | 
V113A | 0.0645 |  |  | 0.0655 |  | 0.0736 | 0.061 | 0.0712 | 0.0626 | 0.0705 | 0.0637 |  | 0.0647 | 0.0682 | 0.0611 | 0.0613 |  | 0.0639 | 0.0799
V113T | 0.0479 | 0.0652 |  | 0.0541 | 0.057 | 0.0544 | 0.0559 |  | 0.0932 | 0.069 |  | 0.0804 |  | 0.0584 | 0.0358 | 0.0525 |  |  | 
S18L | 0.0652 | 0.0665 | 0.0695 | 0.0584 |  |  | 0.0623 |  | 0.0573 | 0.0683 |  |  | 0.0516 | 0.0645 | 0.0543 | 0.0552 | 0.0557 | 0.0502 | 
F173L | 0.0596 | 0.0705 | 0.0813 | 0.0636 |  | 0.076 | 0.0579 | 0.0692 |  |  |  | 0.0595 | 0.0637 |  | 0.0607 |  |  |  | 
H143W | 0.0661 | 0.0542 | 0.0597 | 0.0124 | 0.0451 | 0.0695 |  | 0.043 |  | 0.0614 | 0.049 | 0.0562 | 0.0593 | 0.0635 | 0.0548 | 0.0538 |  |  | 
F133Y | 0.0681 |  | 0.0809 | 0.0648 |  | 0.066 | 0.0717 | 0.0749 | 0.0576 | 0.0739 | 0.0705 |  | 0.0699 | 0.0779 | 0.0564 | 0.0562 |  |  | 0.0767
N52H | 0.0674 | 0.0654 | 0.0615 | 0.0796 |  | 0.0529 |  | 0.0605 |  |  |  |  |  | 0.058 | 0.0554 | 0.0673 |  |  | 
T181A | 0.0637 |  |  |  | 0.0341 | 0.0767 | 0.0556 |  | 0.0783 | 0.0584 | 0.0773 |  |  |  |  |  |  | 0.077 | 0.128
P40E | 0.074 |  |  | 0.0655 | 0.0939 | 0.0753 | 0.085 |  |  | 0.0604 |  |  |  | 0.0914 | 0.0646 | 0.0638 |  |  | 0.0705
G2E | 0.0532 | 0.0645 | 0.0559 | 0.047 | 0.0754 | 0.0673 |  | 0.109 | 0.0648 | 0.0662 |  |  | 0.0707 | 0.0621 | 0.0734 |  |  | 0.0815 | 
I19E | 0.0485 | 0.045 | 0.052 | 0.0493 | 0.0549 | 0.0347 | 0.0389 | 0.0436 | 0.052 | 0.0377 | 0.0629 |  | 0.0451 | 0.0507 | 0.0363 | 0.0332 | 0.0438 | 0.0428 | 0.0532
Q194E | 0.0825 | 0.0265 |  | 0.0687 |  | 0.0745 | 0.0509 |  | 0.078 |  |  |  |  | 0.0587 |  |  |  |  | 0.127
